± gives the standard deviation of the averaged measurements. The list shows a part of the results.

This experiment concerns PfAP2-LT AP2 domain (GST-tagged). The experiment can be described thus: gcPBM binding intensity (ln(normalized median fluorescence intensity)); higher = stronger DNA binding. The method in brief: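 Binding of GST-tagged P. falciparum DNA-binding domains, expressed in E. coli and used at about 25 μg on average, was carried out for 1 h in 1× PBS containing 1% milk, 0.2 mg/ml BSA, 0.5% salmon testes DNA and 0.03% Triton X-100. The target was an Agilent 4 × 180k array of primer-extended double-stranded 36-bp intergenic genomic probes plus negative controls, read with Alexa488 anti-GST antibody at 488 nm. Binding intensity is the highest Masliner-normalised natural-log median intensity across replicate spots of either probe orientation.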
Consider “TATATACGCATGCGCACACACAAGTGGGAAATTTGG [CACACA_site1785]”, for which the “gcPBM binding intensity (ln)” value worked out at 9.45 ± 0.44.

On to “TTATTATATAAATAAAAAAAAAAAAAAAAAAAAAAA [CACACA_negctrl_site1455]”, for which the “gcPBM binding intensity (ln)” value is 8.2 ± 0.35.

As to “ATATTTATATGAATCACACACAAAAAATATAGAGAT [CACACA_site7775]”, the “gcPBM binding intensity (ln)” value is 9.24 ± 0.4.

Consider “ACTGTGGGAATAACCACACACACACCCACATATATA [CACACA_site3542]”, for which the “gcPBM binding intensity (ln)” value is 9.67 ± 0.26.

For “AATATGTTTTTTAGATGTACAGATTAAATATTAAAA [XGTACX_site7308]”, the “gcPBM binding intensity (ln)” value turned out to be 8.25 ± 0.57.

With “CATAAATACAAATATACACACATATATATATATATA [CACACA_site2633]”, the “gcPBM binding intensity (ln)” value came to 9.87 ± 0.34.

With “AAATCACAAAAAAAAAAAAAAATATATATATATATA [CACACA_negctrl_site10]”, the “gcPBM binding intensity (ln)” value worked out at 9.48 ± 0.071.

Take “AAATTTAAAAATAAAGAACACACATATGTAAAATAT [CACACA_site9252]”: the “gcPBM binding intensity (ln)” value was determined as 8.98 ± 0.45.

For the sequence “AATTTCAATTTCTGTTGTACACTTTTTAATAGTAAA [XGTACX_site4085]”, the “gcPBM binding intensity (ln)” value came to 8.68 ± 0.42.

For “AAAAAAAAAAAAAAAACACACAAACATCAAATTACT [CACACA_site6950]”, the “gcPBM binding intensity (ln)” value amounted to 8.98 ± 0.39.

As to “TAAATGAAAATATGTACACACTTGAAAATTTTTATG [CACACA_site5599]”, the “gcPBM binding intensity (ln)” value amounted to 8.86 ± 0.33.

“TATATTATATATATATGTACATATTATTATATCTAA [XGTACX_site3835]”: the “gcPBM binding intensity (ln)” value amounted to 8.67 ± 0.44.

Take “TTTTGTATTTTTCACACACACATAAGTAAACAATAA [CACACA_site1899]”: the “gcPBM binding intensity (ln)” value is 9.21 ± 0.47.

On to “TACAAGAACAAAAAATGTACGAAATAATTACAAATA [XGTACX_site5824]”, for which the “gcPBM binding intensity (ln)” value worked out at 8.84 ± 0.56.

With “AATCTTTTTAAATCTTGATTAATTTCGGGTATATAT [TGCATGCA_negctrl_site107]”, the “gcPBM binding intensity (ln)” value was found to be 8.57 ± 0.42.

On to “ATGTTGTGGATATATACACACATACATATTTATATA [CACACA_site6857]”, for which the “gcPBM binding intensity (ln)” value stood at 8.97 ± 0.38.

On to “AAACATATGGTATTTAAACACACAAAAAAGAAAGAA [CACACA_site8239]”, for which the “gcPBM binding intensity (ln)” value amounted to 9.22 ± 0.54.

As for “ATACAATAATATAAATGTACAAATTATATCTTCATT [XGTACX_site8994]”, the “gcPBM binding intensity (ln)” value was found to be 8.79 ± 0.4.

With “AAATTAAATATTATATTAATTCTTAAATTTTTTTTT [CACACA_negctrl_site439]”, the “gcPBM binding intensity (ln)” value is 7.9 ± 0.48.

Turning to “TAGCATGATTTGCCTTGTACACAACCGTTTTAATAA [XGTACX_site7911]”, the “gcPBM binding intensity (ln)” value stood at 8.73 ± 0.43.

For “AAGTGTTCTTGTTATACACACACATATATATATATA [CACACA_site8251]”, the “gcPBM binding intensity (ln)” value came to 9.45 ± 0.099.

As for “TATGATAAATATGGAGCACACACACCGAAACATACA [CACACA_site8031]”, the “gcPBM binding intensity (ln)” value came out at 9.73 ± 0.25.

For the sequence “TATTATATATAATATTGTACATTAAAATATTAAAGA [XGTACX_site3698]”, the “gcPBM binding intensity (ln)” value worked out at 8.41 ± 0.39.

On to “TTTATTTTAAAATATAGTACGCAAATAAAAATAAAT [XGTACX_site7783]”, for which the “gcPBM binding intensity (ln)” value turned out to be 8.63 ± 0.48.

“GGAACGTTCATATTTCCACACACAAAAAATAAATAT [CACACA_site9101]”: the “gcPBM binding intensity (ln)” value was 9.31 ± 0.57.

As to “ATATGTATTAAGTGTACACATATAATGGGTTTTCTT [CACACA_site5328]”, the “gcPBM binding intensity (ln)” value amounted to 8.96 ± 0.38.

In the case of “GAAAAAAAAATACATACACACAATATATTTATTTAT [CACACA_site3124]”, the “gcPBM binding intensity (ln)” value amounted to 8.96 ± 0.43.

For “TAATTATATAAATACACACACATACACCCAAATAAA [CACACA_site5819]”, the “gcPBM binding intensity (ln)” value is 9.8 ± 0.2.

As to “TATATACTATATATATGTACACAAAATTATTTTGAA [XGTACX_site8232]”, the “gcPBM binding intensity (ln)” value was found to be 8.53 ± 0.38.

On to “ATATGTAGTGTTATTTGTTCATTGTTTTAATTTTTA [CACACA_negctrl_site1394]”, for which the “gcPBM binding intensity (ln)” value worked out at 8.87 ± 0.38.

For the sequence “ATGTATATTTTTATGTGTACGTAATAAAACATAATA [XGTACX_site7777]”, the “gcPBM binding intensity (ln)” value is 8.83 ± 0.41.

Take “TTATTTTTTTTTAGAGCACACATTTTTAATAAGGTA [CACACA_site2133]”: the “gcPBM binding intensity (ln)” value was 8.57 ± 0.47.

For the sequence AATATGGGCATACATGTGCACTTTTTCCCGTGGTTT, the “gcPBM binding intensity (ln)” value was 9.02 ± 0.45.

Regarding “ACGAAAAGATATATATGTACATATATTAAAAAAAAA [XGTACX_site1517]”, the “gcPBM binding intensity (ln)” value was found to be 8.78 ± 0.45.

On to “TTAATTAAATATAGGGGTACATATTATATATGTTTT [XGTACX_site3677]”, for which the “gcPBM binding intensity (ln)” value is 8.91 ± 0.39.

On to AAATATTTCTGCAAGGTGCACTTTATAAATCTTTGA, for which the “gcPBM binding intensity (ln)” value worked out at 8.71 ± 0.41.

As to “AAGAAATTTATTTATTGTACAATATATAATTTGTTT [XGTACX_site2478]”, the “gcPBM binding intensity (ln)” value worked out at 8.61 ± 0.4.

Consider “TTATATGCATATTTTTGTACACAACATTGTTGTATA [XGTACX_site8707]”, for which the “gcPBM binding intensity (ln)” value worked out at 8.93 ± 0.37.

On to “TTTTGTTAACATATAGAAAAGAACAAAGTTAAAAAG [XGTACX_negctrl_site462]”, for which the “gcPBM binding intensity (ln)” value was 8.64 ± 0.54.

For the sequence “TTCGTATGCATGAAATGTACATGATATTATTATAAA [XGTACX_site4542]”, the “gcPBM binding intensity (ln)” value was found to be 8.67 ± 0.37.

With “TATAAATTTGTTCAATGTACATGTAAAGATATAATC [XGTACX_site371]”, the “gcPBM binding intensity (ln)” value was found to be 8.86 ± 0.44.

For “ACCAATCCAAAAGAATGTACCCATGTTTTAAAATAT [XGTACX_site2907]”, the “gcPBM binding intensity (ln)” value is 8.79 ± 0.39.

Turning to “TGAAGCAAAAACAAAACACACATATAAATAAATAAA [CACACA_site3925]”, the “gcPBM binding intensity (ln)” value is 9.15 ± 0.52.

Consider “TTATTTTTTATAAAATGTACATATATTTTAAATATA [XGTACX_site4026]”, for which the “gcPBM binding intensity (ln)” value came to 8.27 ± 0.47.

On to “ATCTTAGTTGAAATATAGAATTTATAATAAAAGTTA [GTGCAC_negctrl_site122]”, for which the “gcPBM binding intensity (ln)” value is 8.3 ± 0.38.

Regarding “TATGTATAAAAATAATGTACAAAATATATTATATGT [XGTACX_site2794]”, the “gcPBM binding intensity (ln)” value is 8.84 ± 0.4.

For “ATACTATAATAATACACACTCATTAGATATATAAAG [CACACA_site7787]”, the “gcPBM binding intensity (ln)” value came to 8.88 ± 0.47.

For “AAAAAACAAAAAAATACACACATAAAAAGGTTTTAG [CACACA_site3584]”, the “gcPBM binding intensity (ln)” value worked out at 9.02 ± 0.51.

Consider “TTATAAGATGATTATAAAATCAAATTCATTCTTTTA [CACACA_negctrl_site1338]”, for which the “gcPBM binding intensity (ln)” value was 8.13 ± 0.49.

“AAATATGTCAAATATACACACATAATAAATATAATA [CACACA_site2310]”: the “gcPBM binding intensity (ln)” value is 9.13 ± 0.49.

With “TAAACATAACAAAGGAGTACAAAACTTGATCAGTTC [XGTACX_site3114]”, the “gcPBM binding intensity (ln)” value stood at 8.98 ± 0.52.

As for “TGTACAAATATGTACACACACACATATTTATTTATA [CACACA_site6419]”, the “gcPBM binding intensity (ln)” value was found to be 9.48 ± 0.3.

Turning to “ATATTTTATTTTTAAAGTACAAAAGAAAAGAATAAT [XGTACX_site8247]”, the “gcPBM binding intensity (ln)” value amounted to 8.48 ± 0.49.

In the case of “GATTTACATTTTGATGAAAATAATAAAATGTGGAAA [TGCATGCA_negctrl_site409]”, the “gcPBM binding intensity (ln)” value was determined as 8.51 ± 0.46.

“AAAAAAAAAGACAAAAGTACAAAGGTTCATAATTTA [XGTACX_site3978]”: the “gcPBM binding intensity (ln)” value is 8.76 ± 0.57.

Regarding “AACATCAAAATATGCACACAAACAATTAGCGGTAGT [CACACA_site2521]”, the “gcPBM binding intensity (ln)” value was determined as 9.44 ± 0.38.

Values taken from the supplement of paper PMC11417369.
